The record followed here is paper PMC2654154, “Molecular Basis of Filamin A-FilGAP Interaction and Its Impairment in Congenital Disorders Associated with Filamin A Mutations” (PLoS ONE, 2009).

By UniProt entry, the sequences of proteins in these tests, tags left out. Where a name states a change or a piece, a line headed by the entry shows the natural chain unless it says otherwise. Chains listed by the source or under a name are the forms on record and can include a tag or linker. Residues count along the entry.
UniProt P21333: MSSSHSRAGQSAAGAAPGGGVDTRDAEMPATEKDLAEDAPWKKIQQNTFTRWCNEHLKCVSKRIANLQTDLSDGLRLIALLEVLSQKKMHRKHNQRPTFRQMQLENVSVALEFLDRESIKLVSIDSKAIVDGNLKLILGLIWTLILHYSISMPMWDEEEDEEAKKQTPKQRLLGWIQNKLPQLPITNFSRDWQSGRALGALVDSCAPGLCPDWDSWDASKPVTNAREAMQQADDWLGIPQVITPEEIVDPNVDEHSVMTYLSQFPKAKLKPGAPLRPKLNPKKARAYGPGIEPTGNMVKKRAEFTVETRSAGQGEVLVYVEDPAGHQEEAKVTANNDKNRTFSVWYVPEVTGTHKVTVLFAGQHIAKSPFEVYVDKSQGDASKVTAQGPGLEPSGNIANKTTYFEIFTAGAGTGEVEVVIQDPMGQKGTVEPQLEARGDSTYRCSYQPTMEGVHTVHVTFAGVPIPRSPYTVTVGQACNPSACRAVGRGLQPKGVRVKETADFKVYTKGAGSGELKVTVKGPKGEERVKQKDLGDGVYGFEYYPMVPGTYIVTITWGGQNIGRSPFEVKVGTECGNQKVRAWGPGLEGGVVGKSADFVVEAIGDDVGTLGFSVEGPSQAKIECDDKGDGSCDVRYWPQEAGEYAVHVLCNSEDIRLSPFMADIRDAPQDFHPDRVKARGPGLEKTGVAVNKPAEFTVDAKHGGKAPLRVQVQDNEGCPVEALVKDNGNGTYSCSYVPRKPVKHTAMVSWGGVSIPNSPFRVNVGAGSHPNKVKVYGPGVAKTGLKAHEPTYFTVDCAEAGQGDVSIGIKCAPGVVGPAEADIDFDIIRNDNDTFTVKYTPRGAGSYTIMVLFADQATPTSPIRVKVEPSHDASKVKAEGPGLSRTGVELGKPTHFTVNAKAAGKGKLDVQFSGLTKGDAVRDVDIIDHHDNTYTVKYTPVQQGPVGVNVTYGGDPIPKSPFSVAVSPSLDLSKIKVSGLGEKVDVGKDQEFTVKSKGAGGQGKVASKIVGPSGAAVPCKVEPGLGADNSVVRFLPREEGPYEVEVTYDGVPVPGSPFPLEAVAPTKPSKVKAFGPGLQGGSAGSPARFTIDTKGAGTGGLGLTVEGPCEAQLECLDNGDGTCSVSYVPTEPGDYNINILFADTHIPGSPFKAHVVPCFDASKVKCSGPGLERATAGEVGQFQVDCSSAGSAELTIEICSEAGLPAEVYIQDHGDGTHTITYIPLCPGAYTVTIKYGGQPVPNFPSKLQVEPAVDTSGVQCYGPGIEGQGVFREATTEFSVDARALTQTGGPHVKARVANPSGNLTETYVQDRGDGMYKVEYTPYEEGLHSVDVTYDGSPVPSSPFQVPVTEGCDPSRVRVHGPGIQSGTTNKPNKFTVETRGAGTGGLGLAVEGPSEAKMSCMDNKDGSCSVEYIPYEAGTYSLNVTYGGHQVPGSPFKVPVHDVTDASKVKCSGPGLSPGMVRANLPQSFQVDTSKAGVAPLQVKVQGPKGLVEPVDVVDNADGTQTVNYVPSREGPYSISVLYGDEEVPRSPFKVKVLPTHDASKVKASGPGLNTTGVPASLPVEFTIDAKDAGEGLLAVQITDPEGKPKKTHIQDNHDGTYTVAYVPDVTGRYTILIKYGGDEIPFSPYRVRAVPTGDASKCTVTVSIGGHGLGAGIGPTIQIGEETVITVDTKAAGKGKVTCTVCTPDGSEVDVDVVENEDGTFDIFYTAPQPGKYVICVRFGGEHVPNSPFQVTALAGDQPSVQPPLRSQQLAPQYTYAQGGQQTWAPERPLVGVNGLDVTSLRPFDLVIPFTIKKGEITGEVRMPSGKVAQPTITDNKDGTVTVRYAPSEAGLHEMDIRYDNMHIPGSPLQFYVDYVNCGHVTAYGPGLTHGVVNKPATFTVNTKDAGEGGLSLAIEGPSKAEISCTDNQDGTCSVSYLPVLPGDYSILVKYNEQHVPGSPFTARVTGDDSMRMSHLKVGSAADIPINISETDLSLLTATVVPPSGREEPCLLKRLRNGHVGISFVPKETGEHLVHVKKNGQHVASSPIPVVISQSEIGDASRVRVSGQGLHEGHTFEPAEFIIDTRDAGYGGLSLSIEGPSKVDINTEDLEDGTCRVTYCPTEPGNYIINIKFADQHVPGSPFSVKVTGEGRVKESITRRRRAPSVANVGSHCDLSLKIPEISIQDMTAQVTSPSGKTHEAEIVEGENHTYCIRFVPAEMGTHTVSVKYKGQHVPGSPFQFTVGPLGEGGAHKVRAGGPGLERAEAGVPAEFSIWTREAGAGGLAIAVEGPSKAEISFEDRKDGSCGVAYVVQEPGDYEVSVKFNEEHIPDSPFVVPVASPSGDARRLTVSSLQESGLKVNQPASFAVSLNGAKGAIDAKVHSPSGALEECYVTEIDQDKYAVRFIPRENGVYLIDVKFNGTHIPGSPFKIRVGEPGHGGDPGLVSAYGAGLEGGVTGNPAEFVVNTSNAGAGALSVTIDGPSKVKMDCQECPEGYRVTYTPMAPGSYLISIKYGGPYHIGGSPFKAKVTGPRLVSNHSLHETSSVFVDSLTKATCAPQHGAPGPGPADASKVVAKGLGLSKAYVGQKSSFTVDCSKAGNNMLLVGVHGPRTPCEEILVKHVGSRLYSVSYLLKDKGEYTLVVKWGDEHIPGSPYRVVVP
IgFLNa23 (23rd Ig repeat of FLNa): residues 2427-2522 of P21333
FLAG-FLNa Δ3 (7447del9, deletion of Y2483-V2485, disease-related) (P21333, form named): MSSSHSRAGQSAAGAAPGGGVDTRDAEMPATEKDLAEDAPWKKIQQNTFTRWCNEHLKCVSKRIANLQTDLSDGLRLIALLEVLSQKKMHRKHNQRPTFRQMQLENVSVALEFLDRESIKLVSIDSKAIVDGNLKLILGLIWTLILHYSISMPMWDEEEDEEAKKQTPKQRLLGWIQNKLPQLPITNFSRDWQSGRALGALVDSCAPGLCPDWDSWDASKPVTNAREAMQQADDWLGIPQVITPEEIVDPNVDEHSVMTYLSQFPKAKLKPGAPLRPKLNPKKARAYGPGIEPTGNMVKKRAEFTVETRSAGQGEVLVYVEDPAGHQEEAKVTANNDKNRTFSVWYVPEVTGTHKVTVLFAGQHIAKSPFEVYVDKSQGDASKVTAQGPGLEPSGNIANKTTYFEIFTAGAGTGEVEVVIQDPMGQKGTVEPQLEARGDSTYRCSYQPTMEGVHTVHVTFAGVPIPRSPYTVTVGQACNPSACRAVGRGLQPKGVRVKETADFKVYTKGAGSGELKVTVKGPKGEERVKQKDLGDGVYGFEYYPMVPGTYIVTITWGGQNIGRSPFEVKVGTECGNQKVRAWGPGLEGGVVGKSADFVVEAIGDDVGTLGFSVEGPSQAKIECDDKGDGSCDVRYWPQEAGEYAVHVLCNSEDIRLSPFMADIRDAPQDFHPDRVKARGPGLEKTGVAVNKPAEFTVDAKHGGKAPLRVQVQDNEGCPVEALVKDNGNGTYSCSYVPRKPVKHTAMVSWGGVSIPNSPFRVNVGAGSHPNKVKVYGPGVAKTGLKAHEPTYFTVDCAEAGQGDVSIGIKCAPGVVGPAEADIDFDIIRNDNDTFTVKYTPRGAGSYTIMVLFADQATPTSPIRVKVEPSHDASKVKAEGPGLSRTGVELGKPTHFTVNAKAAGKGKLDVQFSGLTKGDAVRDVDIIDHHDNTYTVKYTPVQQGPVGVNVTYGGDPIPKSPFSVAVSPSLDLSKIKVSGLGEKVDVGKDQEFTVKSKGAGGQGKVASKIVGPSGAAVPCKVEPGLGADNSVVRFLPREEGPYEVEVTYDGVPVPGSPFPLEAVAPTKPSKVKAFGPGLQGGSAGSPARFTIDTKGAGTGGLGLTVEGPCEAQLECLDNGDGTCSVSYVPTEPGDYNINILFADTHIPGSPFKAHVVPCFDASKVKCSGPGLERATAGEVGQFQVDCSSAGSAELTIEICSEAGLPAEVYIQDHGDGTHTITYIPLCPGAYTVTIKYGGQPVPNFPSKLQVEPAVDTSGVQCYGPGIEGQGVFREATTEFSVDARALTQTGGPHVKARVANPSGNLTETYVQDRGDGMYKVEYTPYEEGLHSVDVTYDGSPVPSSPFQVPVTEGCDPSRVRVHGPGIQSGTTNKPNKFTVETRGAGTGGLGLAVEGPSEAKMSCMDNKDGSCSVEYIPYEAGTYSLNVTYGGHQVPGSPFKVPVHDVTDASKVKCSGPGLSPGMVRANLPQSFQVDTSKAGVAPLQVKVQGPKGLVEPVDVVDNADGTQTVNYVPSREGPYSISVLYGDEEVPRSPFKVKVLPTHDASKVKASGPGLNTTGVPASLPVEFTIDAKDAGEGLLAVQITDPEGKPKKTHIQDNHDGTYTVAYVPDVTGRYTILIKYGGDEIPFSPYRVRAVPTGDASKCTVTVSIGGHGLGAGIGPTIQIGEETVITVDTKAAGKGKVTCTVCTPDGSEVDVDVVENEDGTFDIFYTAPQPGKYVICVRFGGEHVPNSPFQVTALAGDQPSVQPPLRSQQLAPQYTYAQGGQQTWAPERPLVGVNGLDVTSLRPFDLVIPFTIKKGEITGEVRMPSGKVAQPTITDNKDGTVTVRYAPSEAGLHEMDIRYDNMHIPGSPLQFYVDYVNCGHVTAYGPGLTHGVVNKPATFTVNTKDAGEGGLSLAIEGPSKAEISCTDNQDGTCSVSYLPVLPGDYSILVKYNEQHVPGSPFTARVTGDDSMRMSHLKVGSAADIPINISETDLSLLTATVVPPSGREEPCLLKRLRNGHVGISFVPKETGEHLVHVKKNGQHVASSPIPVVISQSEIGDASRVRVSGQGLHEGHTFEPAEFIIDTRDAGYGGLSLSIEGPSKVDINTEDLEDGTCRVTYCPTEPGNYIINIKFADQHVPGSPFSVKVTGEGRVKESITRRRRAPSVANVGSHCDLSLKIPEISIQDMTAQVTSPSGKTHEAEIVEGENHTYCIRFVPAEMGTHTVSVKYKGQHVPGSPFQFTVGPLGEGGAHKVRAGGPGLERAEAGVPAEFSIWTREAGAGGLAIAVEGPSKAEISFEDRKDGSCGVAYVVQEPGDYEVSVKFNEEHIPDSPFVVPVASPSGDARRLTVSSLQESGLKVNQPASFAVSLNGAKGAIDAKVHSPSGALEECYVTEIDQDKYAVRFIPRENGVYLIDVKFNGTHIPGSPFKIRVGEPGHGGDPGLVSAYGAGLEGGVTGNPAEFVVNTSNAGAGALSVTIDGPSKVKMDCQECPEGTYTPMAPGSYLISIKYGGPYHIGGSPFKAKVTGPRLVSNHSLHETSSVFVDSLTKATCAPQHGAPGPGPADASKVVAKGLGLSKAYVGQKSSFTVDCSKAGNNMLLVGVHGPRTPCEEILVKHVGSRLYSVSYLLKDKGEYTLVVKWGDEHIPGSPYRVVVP

Changes are numbered by the printed parent chain. Names may count otherwise. No constants are given. Whether binding was seen depends on the method and setting. For part of these data: Binding seen in cells or lysates may run through a third protein. Some results given as binding are weak or reduced against the parent protein; the word gives no strength. For part of these data: Sequences can lack the tags named with a protein.

Assay [1] concerns the target T1, MBP-His-FilGAP 649–748 (human) (UniProt Q8N264).
T1 sequence: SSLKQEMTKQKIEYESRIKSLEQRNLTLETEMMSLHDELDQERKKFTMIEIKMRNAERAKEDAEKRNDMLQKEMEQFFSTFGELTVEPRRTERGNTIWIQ
As to the kind of experiment: pull-down; amylose resin coated with various concentrations of MBP-FilGAP 649–748; FLNa or its truncates in binding buffer, 1 h, 25°C; CBB or silver staining or immunoblot; both purified.

For assay [2], the target named is FLAG-tagged full-length FLNa (filamin A), wild type (human) (UniProt P21333). As to the kind of experiment: pull-down; GST-His- or MBP-His-FilGAP constructs (various concentrations) with 25 nM FLAG-FLNa on FLAG-specific mAb M2 agarose; 50 mM Tris-HCl, 150 mM NaCl, 0.1% Triton X-100, 0.1 mM EGTA, pH 7.4, 1 h, 25°C; immunoblot for GST or MBP; both purified. For orientation: A western blot detects proteins with antibodies after separation by electrophoresis.

Assay [3] has as its target MBP-His-FilGAPC32 (717–748) (human) (UniProt Q8N264). As to the kind of experiment: SEC; Superose 6 10/300 GL, 20 mM Tris-HCl pH 7.4, 150 mM NaCl, 0.5 mM EGTA, 4°C; size from calibration with standards; both purified. In general terms: Size exclusion chromatography separates by hydrodynamic size, large species first.
The target in assay [4] is FLNa, wild type, expressed from pREP4-FLNa in M2 cells (human) (UniProt P21333). As to the kind of experiment: co-IP; M2 cells co-transfected with pREP4-FLNa and pCDNA5-HA-FilGAP; lysate (1% Triton X-100) precipitated with antibodies to FLNa, blot for HA.
The target of assay [5] is FLNa M2474E expressed from pREP4-FLNa in M2 cells (human) (UniProt P21333). Described as above.
Assay [6] deals with FLAG-FLNa M2474E (human) (UniProt P21333). As to the kind of experiment: electron microscopy (rotary shadowing); FLNa and FilGAP mixed at 1 FLNa : 20 FilGAP for 1 h at room temperature, diluted in glycerol, sprayed onto mica; both purified.
The target of assay [7] is full-length FLNb (filamin B) (UniProt O75369). As to the kind of experiment: co-IP; in vitro immunoprecipitation: purified FilGAP (50 nM) with increasing amounts of FLNa or FLNb, mAbs to FLNa or FLNb on GammaBind G-Sepharose, overnight, 4°C; both purified.
Assay [8] has as its target FLAG-FLNa M2474E (human) (UniProt P21333). As to the kind of experiment: pull-down; full-length FilGAP or His-FilGAP lacking 649–725 (50 nM in Figure 1C) mixed with increasing amounts of wild-type or mutant FLAG-FLNa, precipitated with FLAG-specific mAb on agarose; immunoblot for FilGAP or the His tag; both purified.
Assay [9] deals with FLAG-FLNa Δ3 (7447del9, deletion of Y2483-V2485, disease-related) (human) (UniProt P21333). The assay is described as above.
The target in assay [10] is FLAG-FLNa Δ7 (deletion of L2439-G2445, disease-related) (human) (UniProt P21333). Described as above.
In assay [11] the target is IgFLNa23 (23rd Ig repeat of FLNa) (human) (UniProt P21333). As to the kind of experiment: NMR titration; 15N-HSQC of 0.5 mM 13C15N-IgFLNa23 with FilGAP14 peptide added (up to 6.6-fold excess); 20 mM sodium phosphate pH 6.8, 150 mM NaCl, 25°C; both purified.
The target in assay [12] is His-tag FilGAP lacking residues 649–725 (human) (UniProt Q8N264). As to the kind of experiment: SEC; Superose 6 10/300 GL, 20 mM Tris-HCl pH 7.4, 150 mM NaCl, 0.5 mM EGTA, 4°C; size from calibration with standards; both purified.

On to “FLAG-tagged full-length FLNa (filamin A), wild type (from UniProt P21333 1-2647)”, for which, in assay [1], the binding entry was “binds”. Same read-out and setting: next, “FLAG-FLNa M2474E (from UniProt P21333 1-2647)”: “no binding”.

B1: GST-His-FilGAP 649–729 (domain or fragment, UniProt Q8N264 649-729)
chain: SSLKQEMTKQKIEYESRIKSLEQRNLTLETEMMSLHDELDQERKKFTMIEIKMRNAERAKEDAEKRNDMLQKEMEQFFSTF
With B1, the binding result in [2] was “no binding”. For the molecule MLQKEMEQFFSTFGELTVEPRRTERGNTIWIQ (domain or fragment, UniProt Q8N264 717-748) [MBP-His-FilGAPC32 (717–748)], in assay [3], the binding result was “no binding”.

B2: HA-tagged FilGAP, wild type, in M2 cells (protein, UniProt Q8N264 1-748)
chain: MEENNDSTENPQQGQGRQNAIKCGWLRKQGGFVKTWHTRWFVLKGDQLYYFKDEDETKPLGTIFLPGNKVSEHPCNEENPGKFLFEVVPGGDRDRMTANHESYLLMASTQNDMEDWVKSIRRVIWGPFGGGIFGQKLEDTVRYEKRYGNRLAPMLVEQCVDFIRQRGLKEEGLFRLPGQANLVKELQDAFDCGEKPSFDSNTDVHTVASLLKLYLRELPEPVIPYAKYEDFLSCAKLLSKEEEAGVKELAKQVKSLPVVNYNLLKYICRFLDEVQSYSGVNKMSVQNLATVFGPNILRPKVEDPLTIMEGTVVVQQLMSVMISKHDCLFPKDAELQSKPQDGVSNNNEIQKKATMGQLQNKENNNTKDSPSRQCSWDKSESPQRSSMNNGSPTALSGSKTNSPKNSVHKLDVSRSPPLMVKKNPAFNKGSGIVTNGSFSSSNAEGLEKTQTTPNGSLQARRSSSLKVSGTKMGTHSVQNGTVRMGILNSDTLGNPTNVRNMSWLPNGYVTLRDNKQKEQAGELGQHNRLSTYDNVHQQFSMMNLDDKQSIDSATWSTSSCEISLPENSNSCRSSTTTCPEQDFFGGNFEDPVLDGPPQDDLSHPRDYESKSDHRSVGGRSSRATSSSDNSETFVGNSSSNHSALHSLVSSLKQEMTKQKIEYESRIKSLEQRNLTLETEMMSLHDELDQERKKFTMIEIKMRNAERAKEDAEKRNDMLQKEMEQFFSTFGELTVEPRRTERGNTIWIQ
As for B2, the results for the binding entry in [4] and in assay [5] were “binds” and “no binding”, respectively.

B3: full-length FilGAP, purified from Sf9 insect cells (natural protein, human, UniProt Q8N264 1-748, looked up)
chain: B2 chain
notes: FilGAP, human, full length; Tag-free FilGAP was prepared from His-FilGAP with TEV protease; also called Purified FilGAP; source: Sf9 cells, purified (Ni-NTA)
Turning to B3, the binding entry with FLAG-FLNa M2474E (human) [6] is recorded as “no binding”; in [7], “no binding (tested: 50 nM FilGAP)”; with FLAG-FLNa M2474E (human) [8] it was “no binding”; in assay [9], “no binding”; in [10], “no binding”.

B4: HA-tagged FilGAP V734Y, in M2 cells (protein, UniProt Q8N264 1-748)
chain: B2 chain with V734Y
In the case of B4, the binding result in assay [4] is listed as “no binding”.

On to EQFFSTFGELTVEP [FilGAP14 peptide], for which the binding entry in assay [11] is reported as “binds weakly”.

B5: His-tag FilGAP lacking residues 649–725 (protein, UniProt Q8N264)
chain: MEENNDSTENPQQGQGRQNAIKCGWLRKQGGFVKTWHTRWFVLKGDQLYYFKDEDETKPLGTIFLPGNKVSEHPCNEENPGKFLFEVVPGGDRDRMTANHESYLLMASTQNDMEDWVKSIRRVIWGPFGGGIFGQKLEDTVRYEKRYGNRLAPMLVEQCVDFIRQRGLKEEGLFRLPGQANLVKELQDAFDCGEKPSFDSNTDVHTVASLLKLYLRELPEPVIPYAKYEDFLSCAKLLSKEEEAGVKELAKQVKSLPVVNYNLLKYICRFLDEVQSYSGVNKMSVQNLATVFGPNILRPKVEDPLTIMEGTVVVQQLMSVMISKHDCLFPKDAELQSKPQDGVSNNNEIQKKATMGQLQNKENNNTKDSPSRQCSWDKSESPQRSSMNNGSPTALSGSKTNSPKNSVHKLDVSRSPPLMVKKNPAFNKGSGIVTNGSFSSSNAEGLEKTQTTPNGSLQARRSSSLKVSGTKMGTHSVQNGTVRMGILNSDTLGNPTNVRNMSWLPNGYVTLRDNKQKEQAGELGQHNRLSTYDNVHQQFSMMNLDDKQSIDSATWSTSSCEISLPENSNSCRSSTTTCPEQDFFGGNFEDPVLDGPPQDDLSHPRDYESKSDHRSVGGRSSRATSSSDNSETFVGNSSSNHSALHSLVFSTFGELTVEPRRTERGNTIWIQ
On to B5, for which, in assay [12], the binding result is “no binding”.

B6: GST-His-FilGAP 649–748 (C-terminal 100 residues) (domain or fragment, human, UniProt Q8N264 649-748, looked up)
chain: T1 sequence
notes: FilGAP, human, C-terminal 100 residues; also called GST-FilGAP fragment; source: E. coli (pGEX-4T-3-HT), purified
Take B6: the binding result in assay [2] is “binds”.
